Experimental data taken from the supplement of paper PMC4166925.
± gives the standard deviation of the averaged measurements. Whole data set: some 33,000 sequences, median “E-score (dimensionless, -0.5 to 0.5)” near -0.049, cut for the highest 2% near 0.37. Some of the results follow.

Each sequence was assayed on T1, PmTbr T-box DNA-binding domain (GST fusion) (assay: PBM E-score of 8-mer (E-score (dimensionless, -0.5 to 0.5)); Tbr is Tbrain of the sea star Patiria miniata (Pm) or the sea urchin Strongylocentrotus purpuratus (Sp); higher = stronger binding preference; most listed sequences are background and not binding sites). Conditions: the construct has about 5 more residues each side.
T1 sequence: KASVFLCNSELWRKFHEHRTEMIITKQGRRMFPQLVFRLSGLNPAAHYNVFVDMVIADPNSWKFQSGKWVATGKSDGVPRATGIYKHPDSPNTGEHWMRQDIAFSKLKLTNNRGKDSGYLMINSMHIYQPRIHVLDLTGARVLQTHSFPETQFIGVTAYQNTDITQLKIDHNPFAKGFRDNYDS
Description: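 Universal protein-binding microarray (Agilent AMADID 016060, 60-bp probes with a 35-bp variable region) incubated with 200 nM GST-fused Patiria miniata Tbr T-box DNA-binding domain (residues 272-466) in PBS pH 7.5. Scored for every ungapped 8-mer (given with its reverse complement) by the Universal PBM Analysis Suite as E-score (modified Wilcoxon-Mann-Whitney enrichment, range -0.5 to 0.5; >0.45 counts as bound) and Z-score of median probe intensity. Two replicate arrays (datasets 1 and 2).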
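Also: 200 nM protein in PBS on universal arrays averaged over duplicate arrays.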

Sequence | PBM E-score of 8-mer
TAATGCGA | 0.0983 ± 0.054
CTTTCACC | 0.14 ± 0.034
ATATACCG | -0.0946 ± 0.014
CGCAGCTA | 0.0474 ± 0.067
AGTACACC | 0.0441 ± 0.02
CTTACTAA | -0.116 ± 0.036
GATGAGAC | -0.0112 ± 0.048
CGGGTCAG | -0.124 ± 0.11
CGCGAAAG | 0.3697 ± 0.0008
CTGCCTTC | -0.03 ± 0.015
GCTCACCC | -0.043 ± 0.073
AAGCCCAT | -0.223 ± 0.034
AAGGCCAA | -0.2375 ± 0.00042
AACATCAT | -0.215 ± 0.028
AGACCTAT | -0.2143 ± 0.00038
CCTATTGA | -0.205 ± 0.019
CATCCAGC | 0.0928 ± 0.028
CCATGGCC | -0.263 ± 0.011
AGGCGTCC | 0.0614 ± 0.039
GGCGGAAC | -0.129 ± 0.0067
GAGCTAGA | -0.00238 ± 0.087
AACAAAAG | 0.0585 ± 0.05
GACTCTTA | -0.0591 ± 0.013
CCCTGAAC | -0.0373 ± 0.033
CTCTGAGA | -0.176 ± 0.035

Sequence | PBM E-score of 8-mer
ACAATCAT | 0.0609 ± 0.022
AAGCGAAG | 0.0228 ± 0.014
ATGTCTTG | 0.0183 ± 0.028
AGTGAATG | 0.102 ± 0.0097
TACGATCA | -0.165 ± 0.029
GCGCAAGA | 0.023 ± 0.075
ATAGCGCA | 0.231 ± 0.055
CGTGTATA | -0.117 ± 0.033
GACATAGA | -0.0946 ± 0.012
TACCGCCA | 0.14 ± 0.035
CTCAAAAG | -0.123 ± 0.014
CGTATGCC | -0.241 ± 0.0056
GCGCCAGA | 0.161 ± 0.022
TCCATTAA | -0.219 ± 0.021
GTATCCAC | 0.0223 ± 0.03
TTAGCAAA | 0.173 ± 0.064
AAAGTGCG | 0.315 ± 0.013
ATTCATAG | -0.258 ± 0.052
CAATTGGC | 0.0686 ± 0.013
ACCGAACA | 0.124 ± 0.11
CCGGAGCA | -0.174 ± 0.073
GCTTGTAC | -0.129 ± 0.0078
AGCTCTGC | -0.103 ± 0.062
TGTACAAA | -0.171 ± 0.0051
AGAGTTAG | -0.0219 ± 0.0028

Sequence | PBM E-score of 8-mer
CTGTATAA | -0.15 ± 0.071
AGCTTGCG | 0.0999 ± 0.037
AATGTAGA | -0.232 ± 0.087
AAATTAAT | -0.0745 ± 0.12
TGACGCCA | 0.257 ± 0.0061
CCTACACC | 0.252 ± 0.042
GCCTTAGA | -0.238 ± 0.016
CATATGGA | -0.1183 ± 0.00071
GAGCCGAC | 0.00453 ± 0.026
CGCCTATA | 0.0393 ± 0.012
CTGAGAAG | -0.0799 ± 0.011
ATTGCCCA | -0.0817 ± 0.017
ACTAACCC | 0.0626 ± 0.018
GACGGAGA | -0.143 ± 0.043
AGTCATCG | -0.153 ± 0.0094
TCGTGTAA | 0.0789 ± 0.0091
AGATTCCT | -0.103 ± 0.11
GCCTATAC | -0.288 ± 0.052
AAACGATT | -0.101 ± 0.0011
CAGCGAGG | 0.0797 ± 0.025
GCATCTGA | -0.0824 ± 0.1
CAAGTAAG | -0.191 ± 0.039
ACGAACCA | -0.122 ± 0.025
CCATTTGC | -0.0789 ± 0.04
CGGCAGAA | -0.0852 ± 0.039

Sequence | PBM E-score of 8-mer
GGTCACGA | 0.183 ± 0.026
TGGAACCA | -0.262 ± 0.0091
CAAGGTGA | 0.406 ± 0.0091
ATAACCGA | -0.147 ± 0.098
GCAGTGCC | -0.117 ± 0.051
ATATGTCA | 0.0208 ± 0.066
ATGCGTAC | -0.272 ± 0.07
TCACAAGA | 0.224 ± 0.03
CGCCGAAC | 0.041 ± 0.012
GTTTGCGA | 0.0776 ± 0.039
CGCAGCCA | 0.00214 ± 0.11
ATAGCCAT | -0.146 ± 0.031
AGTTGGGA | -0.167 ± 0.025
GAGTGAGA | 0.334 ± 0.017
ATAGCTCG | -0.0789 ± 0.017
CTACCAGA | -0.1381 ± 0.0011
ACGACACA | 0.115 ± 0.034
ATTCGACC | -0.152 ± 0.058
CGCGTTCC | -0.0382 ± 0.061
TGTAATAA | 0.0238 ± 0.14
CTGATGAA | -0.00161 ± 0.098
AACCTGTC | 0.30927 ± 0.00016
AATCATCA | 0.153 ± 0.021
CATGGAAA | -0.108 ± 0.022
ACAGCAGG | -0.0233 ± 0.061

Sequence | PBM E-score of 8-mer
GAGTGGGA | 0.0301 ± 0.01
CCACGCGG | -0.0574 ± 0.0026
CCCATTAA | -0.0255 ± 0.068
GAAGCATA | -0.215 ± 0.014
GCTATTTA | -0.0124 ± 0.033
ATGACGGA | -0.112 ± 0.07
ACGCACTG | -0.0386 ± 0.054
AAAAGACA | -0.0601 ± 0.029
CTGTTTAC | 0.071 ± 0.057
ACTCTGCC | -0.0304 ± 0.22
ACCGAGAA | 0.0157 ± 0.05
CTCCTAAC | -0.0554 ± 0.0048
AATTCATA | -0.105 ± 0.05
CCAGTTAA | -0.038 ± 0.082
CCATAGAC | -0.125 ± 0.027
GTTATCCA | -0.0787 ± 0.055
AACGTAGG | -0.125 ± 0.0043
GACCGTCC | -0.285 ± 0.035
AACACGTA | 0.34 ± 0.024
CAAAGCTC | -0.27 ± 0.043
CCAAACAG | -0.106 ± 0.092
GAGTAGAC | -0.108 ± 0.038
GAGCGCTA | 0.15 ± 0.059
GCCAGGAA | 0.029 ± 0.044
AGTGACAT | 0.309 ± 0.017

Sequence | PBM E-score of 8-mer
ATCTAGAT | -0.0368 ± 0.064
AGGTTTGG | -0.19 ± 0.043
ACAAGTCC | 0.0707 ± 0.041
CAGTGCCA | 0.1759 ± 0.00025
CTCTTAGC | 0.0198 ± 0.0047
ATCAGTCA | -0.125 ± 0.057
ATGAACTC | -0.224 ± 0.041
GAATAACA | 0.148 ± 0.0084
GACCACTA | -0.146 ± 0.042
AGGAGAAA | -0.109 ± 0.19
CTCTATGA | 0.0103 ± 0.013
AAATTGCG | 0.0455 ± 0.011
AATAGACA | 0.0687 ± 0.04
GTGTACAA | 0.0145 ± 0.089
GGCTTTAC | -0.202 ± 0.092
ACCGGAGT | 0.00344 ± 0.032
ACGCTCCC | -0.0122 ± 0.036
AAGCCATA | -0.228 ± 0.051
TCTTTTCA | -0.0322 ± 0.15
GAACGGTC | 0.0352 ± 0.063
AATATATC | -0.166 ± 0.084
ATTACCAC | 0.226 ± 0.032
AGGAAAAT | -0.141 ± 0.042
AACTGACA | 0.283 ± 0.032
GAAGCTTA | -0.128 ± 0.049

Sequence | PBM E-score of 8-mer
CTATGTAC | -0.179 ± 0.03
GAGACGGC | -0.0695 ± 0.089
CGGCACCA | 0.203 ± 0.048
GATTAAGA | -0.0946 ± 0.089
GGATCAGA | -0.195 ± 0.061
AATACCAA | -0.134 ± 0.066
AACTAATC | -0.241 ± 0.053
AACAAGAG | -0.132 ± 0.04
CATGCCAC | 0.171 ± 0.022
AAAATTAA | -0.0941 ± 0.041
CTTTCACA | 0.444 ± 0.0053
GCGGCCTA | 0.00511 ± 0.018
CTACTCAG | -0.135 ± 0.036
TACGTGAA | -0.0139 ± 0.046
CTAAGGGA | -0.17 ± 0.042
AATGCCTG | 0.00523 ± 0.028
AGCGGTCC | -0.143 ± 0.026
CCCGACGG | -0.045 ± 0.07
ATAAGTTC | -0.116 ± 0.031
TATCGCCA | 0.225 ± 0.027
CATCACAA | 0.179 ± 0.006
ACAAGTCT | 0.103 ± 0.044
